Laboratory results as given in the supplement of paper PMC12217912.
This is one part of the list. The full chains were built here from the parent and the listed change. Inactive controls read about 0.05.

B1: TEV protease; numbered along this chain (parent)
chain: MGESLFKGPRDYNPISSSICHLTNESDGHTTSLYGIGFGPFIITNKHLFRRNNGTLVVQSLHGVFKVKDTTTLQQHLVDGRDMIIIRMPKDFPPFPQKLKFREPQREERICLVTTNFQTKSMSSMVSDTSCTFPSGDGIFWKHWIQTKDGQCGSPLVSTRDGFIVGIHSASNFTNTNNYFTSVPKNFMELLTNQEAQQWVSGWRLNADSVLWGGHKVFMVKPEEPFQPVKEATQL

Variants of: B1
Experiment: raw area under fraction-flipped curve 0-4 h after induction (AUC4h, not background-subtracted), DNA-recorder readout of cleavage of the substrate (dimensionless); higher = more cleavage of the substrate by the protease variant
Settings: temperature: 34 °C; time window: 0-4 h after rhamnose induction
Protocol: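 In vivo DNA recorder in E. coli TOP10(DE3) ΔrhaA at 34 °C. Each TEVp single-site mutant (parent TEVp 0) is paired with a single-site variant of the 7-mer TEVs (canonical ENLYFQ|S). The substrate sits between flexible linkers in a Bxb1-sfGFP-TEVs-SsrA fusion, so cleavage stabilises Bxb1 and speeds flipping of a recombination array, read by NGS. The value is the raw area under the fraction-flipped curve over 0-4 h after rhamnose induction (AUC4h), with ≥20 reads per time point. It is not background-subtracted; inactive controls average about 0.047.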
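Also: Bxb1 expression induced with 0.2% (w/v) L-rhamnose at OD600 near 0.5, cultures sampled hourly, flipped fraction per protease–substrate barcode pair counted by paired-end Illumina sequencing.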

Variant	area with substrate ENLYCQS	area with substrate ENLYDQS	area with substrate ENLYEQS	area with substrate ENLYGQS	area with substrate ENLYHQS	area with substrate ENLYIQS	area with substrate ENLYKQS	area with substrate ENLYLQS	area with substrate ENLYMQS	area with substrate ENLYNQS	area with substrate ENLYPQS	area with substrate ENLYQQS	area with substrate ENLYRQS	area with substrate ENLYSQS	area with substrate ENLYTQS	area with substrate ENLYVQS	area with substrate ENLYWQS	area with substrate ENLYYQS
T23C	0.133	0.0717	0.0783	0.0665	0.0631	0.107	0.0825	0.0776	0.0791	0.0727	0.0701	0.0623	0.0737	0.0563	0.0756	0.146	0.0874	–
T23N	0.0881	0.0531	–	0.0508	0.0695	0.117	0.0575	–	0.0716	0.0727	–	0.0812	0.0499	0.0685	–	0.109	0.0665	0.0779
E25G	0.0724	0.051	0.0638	–	0.0563	0.103	–	0.0714	0.0725	0.0655	0.0616	0.0714	0.063	0.0595	0.0691	0.0834	0.0667	0.0496
E25R	0.0682	0.0603	0.0667	0.0658	0.0603	0.131	0.0236	–	0.122	0.0631	0.0711	0.0652	0.0455	0.105	–	0.135	0.082	–
S26H	0.0663	–	0.0684	0.0723	0.0665	0.133	0.0671	–	–	0.0678	0.0631	0.0613	0.0565	–	0.0833	–	–	–
S26W	0.0657	–	0.0649	0.0675	0.0558	0.0604	0.0539	0.0648	0.0761	0.0619	–	0.0656	0.0578	0.0573	–	–	0.0665	0.0605
T31A	0.115	0.0656	0.0687	0.061	0.0673	0.101	0.0541	0.0652	0.0852	0.0542	0.0757	0.0689	0.0595	0.085	–	–	0.0851	0.0596
I36Y	0.0515	0.0366	0.0585	0.0468	0.0503	0.0542	0.0645	0.0493	0.0572	0.0434	0.0535	–	0.0468	–	–	0.0571	0.044	0.0403
G37I	0.0603	–	0.112	0.0784	0.0558	0.0959	0.069	0.0642	0.0797	0.0619	0.0657	0.0518	0.0554	0.0522	–	0.0866	0.0683	0.0666
F38C	0.0847	0.0595	0.0644	0.0662	0.07	0.128	0.0634	–	0.0846	0.0583	0.0594	0.0604	0.0637	0.0728	0.0573	0.117	0.0613	0.0612
F38I	0.0681	0.0444	0.052	0.0674	0.0623	0.1	–	–	0.0764	0.0729	0.07	0.0653	0.0505	–	–	–	0.0643	–
I43E	0.0579	0.0523	0.0362	0.0424	0.044	0.0409	0.041	0.0386	0.0402	0.0362	0.0462	0.0541	0.0473	0.0432	0.0423	0.0595	0.048	0.0349
T44P	0.0452	0.0407	0.0186	0.0508	0.0414	0.0482	0.05	–	0.0449	0.0342	0.0389	0.0432	–	0.0421	–	–	0.0431	0.042
T44S	0.0723	–	0.0607	0.0821	0.0655	0.144	0.0613	0.0691	0.0832	0.0581	–	0.0652	0.0678	–	0.085	0.0977	0.0735	0.0481
K46C	0.112	0.0718	0.0546	–	0.0689	0.133	0.0631	–	0.0731	0.0717	0.0534	0.0575	0.0594	0.0736	0.0784	0.122	0.0736	0.0532
H47C	0.0677	0.0774	0.0555	0.06	–	–	0.0455	–	0.0585	0.0668	0.0525	–	0.059	0.0757	0.025	0.0593	0.0549	0.066
F49I	0.0614	0.0576	0.0586	0.0584	0.0589	0.0657	–	–	0.0607	0.0535	0.0498	0.0574	0.0574	0.0699	0.0693	0.0801	–	–
R50K	0.0926	0.0674	–	0.0732	–	–	0.0669	0.0741	0.0704	0.0654	0.0585	0.0603	0.0724	0.0719	–	0.0805	0.0746	–
N52P	0.0547	–	0.0465	0.0611	–	0.0779	0.0545	–	0.0627	0.0667	0.0726	0.0638	0.0794	–	–	0.077	–	–
S60H	0.0998	0.0392	0.112	0.0575	0.0614	0.126	–	0.073	0.102	0.0683	–	–	0.0768	0.0745	0.0769	0.122	–	0.0746
H62A	0.0817	0.0762	0.0646	0.0614	0.0756	–	0.0609	–	–	0.0852	0.0571	0.0642	–	0.0817	–	0.105	0.0764	0.0692
Q75K	0.0686	–	0.0575	–	0.0679	0.0815	0.0286	–	0.0674	0.0607	0.0619	0.0657	0.0552	0.0602	0.0575	0.0568	0.0633	0.0413
H76R	0.0793	0.0613	0.0663	0.0852	0.0551	0.0889	–	0.0669	–	–	0.0655	–	0.0711	0.0633	–	0.0835	–	–
L77H	0.0732	0.0651	0.0565	0.0643	0.0612	0.0715	0.0595	–	–	–	0.0477	0.0723	0.0597	–	0.0637	0.088	0.0628	0.0522
